Among the data in the antibiotic and cytotoxicity screens of Wong et al. (2023) are cytotoxicity call and growth inhibition call values, retold here.

The test system of one experiment is HSkMC. Description: cytotoxicity call (relative viability < 0.9). Conditions: 10 µM.
A further experiment relates to HepG2. Description: cytotoxicity call (relative viability < 0.9). The note with it: 10 µM.
In the next experiment the test system is S. aureus RN4220. Description: growth inhibition call (relative growth <= 0.2). The note with it: 50 µM.

Some of the results follow.

As to `CN1CCN(C(=O)C[C@@H]2CC[C@H]3[C@@H](COC[C@H](O)CN3Cc3ccc4c(c3)OCO4)O2)CC1`, the cytotoxicity call with HSkMC and with HepG2 was “inactive” each time. In addition, the growth inhibition call in the experiment on S. aureus RN4220 is “inactive”.
Take `C[C@@H]1CN([C@H](C)CO)C(=O)Cc2cc(NC(=O)C3CC3)ccc2O[C@H]1CN(C)Cc1ccc(Oc2ccccc2)cc1`: the cytotoxicity call in the experiment on HSkMC and in the experiment with HepG2 was “inactive” throughout. Moreover, the growth inhibition call in the experiment on S. aureus RN4220 was “inactive”.
For the compound `C[C@@H]1CN([C@H](C)CO)C(=O)Cc2cc(NC(=O)Cn3cnnn3)ccc2O[C@@H]1CN(C)S(=O)(=O)c1ccc(F)cc1`, the cytotoxicity call in the experiment with HSkMC and in the experiment with HepG2 was “inactive” each time. For the same compound, the growth inhibition call with S. aureus RN4220 is “inactive”.
For the compound `C[C@H](CO)N1C[C@H](C)[C@@H](CN(C)S(=O)(=O)c2ccc(Cl)cc2)OCCCC[C@H](C)Oc2ccc(NC(=O)Cc3ccccc3)cc2C1=O`, the cytotoxicity call with HSkMC was “inactive”. The cytotoxicity call in the experiment on HepG2 was “active”. Further, the growth inhibition call with S. aureus RN4220 was “inactive”.
`C[C@@H]1CN([C@@H](C)CO)C(=O)c2cc(NC(=O)Nc3ccc(F)cc3)ccc2O[C@@H](C)CCCCO[C@@H]1CN(C)S(=O)(=O)c1ccc(Cl)cc1`: the cytotoxicity call with HSkMC and in the experiment on HepG2 was “inactive” throughout. In addition, in the experiment on S. aureus RN4220, the growth inhibition call is “inactive”.
Take `COc1ccccc1CNC(=O)C[C@H]1C[C@@H]2c3cc(NC(=O)C4CCOCC4)ccc3O[C@@H]2[C@@H](CO)O1`: the cytotoxicity call in the experiment with HSkMC and with HepG2 was “inactive” in each case. In the experiment on S. aureus RN4220, the growth inhibition call was “inactive”.
In the case of `COc1c(C)cccc1C(=O)N1CC[C@H](c2nn(CCN)c3ncccc23)C1`, the cytotoxicity call in the experiment on HSkMC and in the experiment on HepG2 was “inactive” throughout. The growth inhibition call in the experiment on S. aureus RN4220 is “inactive”.
`N=C(N)NCCCC[C@@H]1NC(=O)CCSSC[C@@H](C(N)=O)NC(=O)[C@@H]2CCCN2C(=O)[C@H](Cc2c[nH]c3ccccc23)NC(=O)[C@H](CC(=O)O)NC(=O)CNC1=O`: the cytotoxicity call in the experiment with HSkMC and in the experiment with HepG2 was “inactive” each time. The growth inhibition call in the experiment with S. aureus RN4220 was “inactive”.
Take `C[C@@H]1CN([C@H](C)CO)C(=O)c2ccccc2-c2ccccc2CO[C@@H]1CN(C)Cc1cccc2c1OCCCO2`: the cytotoxicity call in the experiment on HSkMC (human skeletal muscle cells) and in the experiment with HepG2 was “inactive” each time. Also, the growth inhibition call with S. aureus RN4220 was “inactive”.
